# Experimental data taken from the supplement of paper PMC3334620.
# In all, about 33,000 sequences were measured (“E-score (-0.5 to 0.5)”: median about -0.036, highest 2% from about 0.37 on). This is one part of the list.
# Target: T1, Yer064c (UniProt P40041)
# T1 sequence: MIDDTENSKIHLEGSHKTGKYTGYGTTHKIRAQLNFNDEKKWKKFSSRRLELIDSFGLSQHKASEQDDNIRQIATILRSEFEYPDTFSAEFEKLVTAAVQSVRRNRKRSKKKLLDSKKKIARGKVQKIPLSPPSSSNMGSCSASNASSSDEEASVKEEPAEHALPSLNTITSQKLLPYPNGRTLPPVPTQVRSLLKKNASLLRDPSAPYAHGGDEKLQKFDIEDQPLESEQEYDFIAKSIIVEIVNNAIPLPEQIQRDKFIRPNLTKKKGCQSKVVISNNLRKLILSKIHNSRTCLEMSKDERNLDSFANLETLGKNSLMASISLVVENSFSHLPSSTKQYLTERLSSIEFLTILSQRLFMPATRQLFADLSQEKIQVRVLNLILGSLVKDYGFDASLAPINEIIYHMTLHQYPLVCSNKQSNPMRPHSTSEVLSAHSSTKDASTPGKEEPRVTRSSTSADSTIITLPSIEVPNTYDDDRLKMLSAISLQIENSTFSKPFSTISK
# Test: PBM E-score (8-mer binding enrichment) (E-score (-0.5 to 0.5)); higher = stronger / more preferred TF binding; most listed sequences are background and not binding sites
# Conditions: protein concentration: 200 nM; construct: GST-full length
# Experimental: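 Universal 'all 10-mer' protein binding microarrays (Agilent AMADID 015681) probed with GST-tagged S. cerevisiae TFs (full-length or DBD) made by in vitro transcription/translation (PURExpress), about 100-200 nM. Bound TF was detected with fluorescent anti-GST. Each ungapped 8-mer (which stands for itself and its reverse complement) is scored by the PBM enrichment score (E-score), a modified Wilcoxon-Mann-Whitney statistic from -0.5 to +0.5, computed with the Universal PBM Analysis Suite. Scale: above 0.35 generally sequence-specific binding.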
row,Sequence,PBM E-score
1,CGATAGCG,-0.225
2,ACGCATGC,0.0119
3,GTCGCGGA,0.0142
4,CTATAATA,-0.109
5,AGGGGTAT,-0.144
6,CAAGCATA,-0.1
7,GCATAGGC,-0.2
8,CACATCCA,0.0287
9,AACATAGC,-0.0258
10,ACGCCGTA,-0.0409
11,CCAAATAC,-0.298
12,ACAACACT,0.19
13,CTTGCAGA,-0.0612
14,CTCGGAAA,0.157
15,GGATGTTA,-0.252
16,GTAAAAGA,0.0853
17,ACCAAAGT,0.0594
18,ACAGCTGG,-0.173
19,TTCCTCAA,-0.0537
20,AACCAGTG,-0.152
21,CGAAGCAG,-0.234
22,GAAAGCGC,-0.158
23,GAACCTTC,-0.0748
24,CTAATTTA,0.146
25,CCTAGACG,-0.177

row,Sequence,PBM E-score
1,CACTGCAG,-0.103
2,ATACCACG,-0.0783
3,AGATTCGC,-0.0217
4,ATGGCGTG,0.12
5,CGTGTACA,-0.112
6,CACTTTAA,0.0926
7,ACCTTTTA,-0.0549
8,CCGCCGCG,-0.032
9,ATCCTTTG,-0.1
10,CACTTTTC,0.0572
11,GTATGCAC,-0.0694
12,GATCGGCC,-0.2
13,CCTGGATA,-0.134
14,AAAATCCT,-0.0376
15,ATGCCCGG,-0.0401
16,ACCAGCTC,-0.107
17,CGTCAACG,0.0184
18,TAAGTTAA,0.208
19,ACATCGCG,-0.244
20,CCTGCCGC,-0.296
21,TCGGTAAA,0.0338
22,GATTGTGC,0.124
23,AGATACTC,0.156
24,ACTGACGA,0.204
25,AGTCTCCG,0.345

row,Sequence,PBM E-score
1,GAAAAATA,0.0112
2,GCTGCCAC,-0.212
3,AAGGACAT,-0.146
4,GAGTACTC,0.381
5,GCAGTGTA,-0.0366
6,TGGTGGAA,-0.132
7,AGGAGCCA,0.16
8,AACACTCA,0.102
9,ACAGGCCG,-0.134
10,ATTTCTTG,0.117
11,AAGTCCAT,0.0523
12,GACGCAAC,-0.248
13,ATCCATCC,0.0305
14,ACAAGGTC,0.00971
15,AAGCGGAA,0.0176
16,CATCATGC,0.0857
17,GTAAGCCA,-0.132
18,GCACTTCA,-0.231
19,CGGATCTC,-0.298
20,CATCACCG,0.156
21,GAGCCACC,0.182
22,ATGCAAAA,0.0615
23,TCTGAAAA,-0.1
24,CATATAAA,-0.0573
25,CTCTCGGA,0.144

row,Sequence,PBM E-score
1,CCTCGAAC,-0.109
2,CCCATATA,0.155
3,GGGACACA,0.0557
4,AGTGAAAC,-0.00547
5,CATTATGC,-0.0366
6,CCCATCCG,-0.0756
7,ATATTCTC,-0.00287
8,CATATGAC,0.289
9,GAGTTACA,0.178
10,CCTGGCGC,-0.0612
11,AGTTCACG,0.0532
12,CCGAGAAG,-0.101
13,CCGACAAA,-0.0238
14,AAGTTCAC,0.0164
15,CGCTTCGC,-0.196
16,CAACTCCC,-0.15
17,CGGTGAGC,-0.0299
18,ATAGTGTC,-0.065
19,AACCGAAC,-0.139
20,CCGCTCGA,-0.132
21,CGCAAGTA,-0.0674
22,CCTGTCTA,-0.0113
23,AATGGACA,-0.0288
24,GCGGAGAA,-0.124
25,TGTTATAA,0.036

row,Sequence,PBM E-score
1,CCTCGTGA,0.0458
2,ATTCACGG,0.196
3,GTTAAGAA,-0.0868
4,AGCTAGTG,-0.256
5,CCCTGTAC,-0.192
6,CAACCCAC,-0.0875
7,AACCCAAT,0.137
8,AACACTTC,-0.112
9,ATCGGCAC,-0.0695
10,CTATGGGC,-0.019
11,ACCACCCT,-0.0168
12,GCCCGGGA,-0.176
13,CCCCGCGC,-0.432
14,CGGAATCA,0.392
15,CACGTATG,0.0639
16,AAATGGAG,0.0807
17,GGCCTTCA,-0.0776
18,AACCGACA,-0.0888
19,CAATTTGG,-0.132
20,ACACGGGA,-0.116
21,CGTACCGC,-0.244
22,CTCCCACA,-0.173
23,GCTTGTCA,-0.0506
24,AGCCTACC,-0.117
25,AATATACG,-0.142

row,Sequence,PBM E-score
1,CGTGTCGA,-0.134
2,GCAATAAA,0.17
3,CATAACTC,0.133
4,CAGGCAAC,-0.126
5,CCGCACTC,-0.148
6,AAGTCTAC,0.0107
7,AACAAGGT,0.0245
8,ATAAATTC,-0.102
9,TACTCCCA,0.131
10,GCCCCAGA,-0.151
11,CCACACCC,-0.221
12,CATGATCG,0.0767
13,CGCATATC,-0.0187
14,CAGGCTAC,-0.149
15,CTGGTCAC,0.0888
16,ACGTGGAC,-0.0541
17,CAAAGCCC,-0.228
18,AGGAGTTG,-0.0388
19,ACCGGACA,-0.137
20,CGGCTAGA,-0.186
21,AACCTTCA,0.093
22,AAGCATAT,0.0236
23,AAGATACT,-0.0549
24,AATGTGGC,-0.185
25,GCGAGCGA,-0.108

row,Sequence,PBM E-score
1,ACCCTCAG,-0.0413
2,ATCGCATG,0.0924
3,ATAATGTG,0.13
4,ATCTGACG,-0.12
5,CGTATAAG,-0.0799
6,CGATTAAG,0.153
7,CACCCTAG,-0.0277
8,AATAGATT,0.0759
9,ACGACAGC,-0.0135
10,AGAGGTGA,0.0588
11,CTTAGTAC,0.0958
12,GCACCAAA,-0.105
13,ATCCAGAC,-0.221
14,GAAAACAC,0.00149
15,ATGGAACG,-0.255
16,AGTTAATC,0.36
17,AGTCAACG,0.443
18,AGTTGCGG,0.0254
19,ACAGTTAA,0.149
20,AGCCGTGA,0.102
21,ACGCCCTA,-0.314
22,GTTAATCA,0.451
